According to PubChem BioAssay AID624296 (National Center for Advancing Translational Sciences (NCATS), 2012):
“And” between values parts separate entries of the source, which are not always exact repeats. Equal values may be shown once. Screen size: about 350,000 compounds; about 9,900 (2.8%) were called active. The shares of active, inactive and inconclusive entries below differ from those in the screen. The call rests on the fitted dose curve; in most records, active means well fitted activation curve with a large enough effect; inconclusive means small, poorly fitted or top-dose-only effect; inactive means no such curve, though single readings can be large or run the other way. No potency is given beside an inconclusive call; the fits are too rough. More than one record can exist for a structure, and the calls need not agree.

Assay: A quantitative high throughput screen for small molecules that induce DNA re-replication in MCF 10a normal breast cells. Further: nearly all actives have a fitted effect of over 50% in size. On activity, positive = re-replication: % of control where 0% means no effect.
Details: MCF 10A DNA re-replication, Hoechst nuclear intensity, 48 h; activity, positive = re-replication: at 46.1 µM (top of the series)
Potency means the concentration at half of the fitted maximal effect; tags describe the fitted curve by direction and shape.

Compound | Potency | activity, positive = re-replication
C(=C\c1nc2ccccc2[nH]1)/c1ccccc1 | active: 5.17 µM | –
COc1ccc(NC(=O)N2CCc3ccccc3C2)cc1OC | – | inconclusive: -51.1% [activator]
COc1cccc(C2CC(c3cccs3)=NN2C(=O)CSc2nc3c(cnn3-c3ccc(F)cc3)c(=O)[nH]2)c1OC (stereo not given) | inconclusive [activator, partial curve] | –
Nc1ccccc1C(=O)NC(=O)Nc1ccc(Oc2ncc(Br)cn2)c(Cl)c1 | – | inconclusive: 133% [activator]
Cc1cc(N/N=C/c2ccc(O)cc2O)nc(-n2nc(C)cc2C)n1 | active: 5.17 µM | –
CCOc1ccc(S(=O)(=O)NCCC(=O)Nc2cccc(C(=O)OC)c2)cc1 | – | inactive: -0.614%
COc1cc(-c2nc(C(F)(F)F)c(OC)o2)cc(OC)c1OC | inconclusive [activator, single point] | –
CC1(c2ccccc2)NC(=O)N(CC(=O)N(CC(=O)Nc2ccccc2C(F)(F)F)Cc2ccco2)C1=O (stereo not given) | – | inactive: 0.809%
Nc1ccccc1C#CC(=O)c1ccccc1 | active: 8.2 µM | –
O=C(CCC(=O)Nc1ccccc1Cl)NNC(=O)Nc1cccc([N+](=O)[O-])c1 | – | inactive: 1.7%
CCOc1ccccc1OCCCC(=O)N1CCN(S(=O)(=O)c2cccc(F)c2)CC1 | – | inactive: 13.4%
C=CCNC(=O)N1CCC(n2nccc2NC(=O)CCCc2ccccc2)CC1 | – | inactive: -3.43%
COc1ccc(Cn2c(=S)[nH]c3cc(OC)c(OC)cc3c2=O)cc1 | inconclusive [activator, partial curve, poor fit] | –
COc1ccccc1-c1nnc2n1N=C(c1ccc(OC(F)F)c(OCC3CC3)c1)CS2 | inconclusive [activator, partial curve, poor fit] | –
Cc1cccc(NC(=O)c2cc(S(=O)(=O)N3CCCCC3)ccc2Cl)n1 | inconclusive [activator, single point] | –
COc1cc(OC)c(CN2CCc3c([nH]c4ccccc34)C2)cc1Br | – | inactive: 8.07%
CS/C(=N\S(=O)(=O)c1cccs1)NC(=O)CSc1nc2ccccc2s1 | inactive and active: 11.6 µM | –
c1ccc(C2(CN3CCNC[C@H]3Cc3cccc4ccccc34)CC2)cc1 | inconclusive [activator, single point] | –
Cc1cnnn1-c1ccc(C(=O)CCl)cc1 | active: 29.1 µM | –
C[C@H](CO)N1C[C@H](C)[C@@H](CN(C)S(=O)(=O)c2cccs2)Oc2c(NC(=O)NC3CCCCC3)cccc2C1=O | inconclusive [activator, single point] | –
Cc1cccc(N2CCN(C(=O)N3CCOCC3)CC2)c1C | inconclusive [activator, single point] | –
Cc1ccsc1/C=N/NC(=O)c1nnn(-c2nonc2N)c1-c1ccc2c(c1)OCO2 | – | inactive: 0.288%
O=C(CSc1ccc(F)cc1)Nc1nnc(-c2ccco2)o1 | – | inactive: -13.3%
CCOC(=O)c1ccc(Nc2nc(N)c3cc(OC)c(OC)cc3n2)cc1 | active: 20.6 µM | –
Cc1cc(=O)[nH]c(SCc2nc3ccccc3n2Cc2ccccc2)n1 | inconclusive [activator, single point] | –

Compound | Potency | activity, positive = re-replication
CCOC(=O)/C(C#N)=C/c1cc(C)n(-c2ccccc2)c1C | inconclusive [activator, single point] | –
COc1ccc(/C=C2\SC(=S)N(CCC(=O)NC3CCCC3)C2=O)cc1OC | inconclusive [activator, single point] | –
O=C(NCc1ccncc1)C(=O)NCC1OCCCN1S(=O)(=O)c1ccc(F)cc1 (stereo not given) | – | inactive: -4.56%
C#CCOc1ccc(C2C(C#N)=C(N)Oc3cc(O)ccc32)cc1 (stereo not given) | – | inactive: 13.8%
O=C(N/N=C/c1ccccn1)c1cccc(NC(=O)c2ccc(Cl)cc2)c1 | inconclusive [activator, partial curve, poor fit] | –
Cc1cccc(C(=O)NCC(=O)OC(C)C(=O)Nc2ccc(Cl)cn2)c1 (stereo not given) | – | inactive: 3.37%
O=C(C1CC1)N1CCc2cc(Br)cc(S(=O)(=O)N3CCCCCC3)c21 | inconclusive [activator, single point] | –
O=C(Nc1ccc(Cl)c(Cl)c1)Nc1nnc(CSc2ccccc2)s1 | inconclusive [activator, partial curve, poor fit] | –
CC1CCc2nc(NC(=O)C3CCCO3)sc2C1 (stereo not given) | – | inactive: -4.92%
OCC#Cc1ncc(C(F)(F)F)cc1Cl | inconclusive [activator, single point] | –
COC(=O)c1ccc2c(c1)N(Cc1nc(-c3ccc(Cl)cc3)oc1C)C(=O)C1CCCN21 (stereo not given) | inconclusive [activator, single point] | –
O=C(NCCN1CCOCC1)c1cc2c(=O)n3ccccc3nc2n1Cc1ccccc1 | active: 16.4 µM | –
O=C(Cn1cnc2c(OCc3ccccc3)ncnc21)NCCCc1ccccc1 | – | inactive: -0.666%
Cc1nc2c(C(=O)NCc3ccc4c(c3)OCO4)cnn2c(C)c1Cc1ccc(F)cc1Cl | inconclusive [activator, single point] | –
CCCCNc1c(-c2ccc(SC3CCCCC3)c(OC)c2)nc2ccc(C)cn12 | active: 10.3 µM | –
CCOC(=O)C1(CCOc2ccccc2)CCN(Cc2ccc(OCCO)cc2)CC1 | inconclusive [activator, single point] | –
CCOC(=O)c1ccc(S(=O)(=O)N2CCN(CCc3ccncc3)CC2)cc1 | inconclusive [activator, partial curve, poor fit] | –
COc1ccc(/C=N/NC(=O)C(C)n2cnc3ccccc3c2=O)cc1 (stereo not given) | – | inactive: -15.5%
CCOC(=O)c1nnc(-c2ccccc2)nc1N1CC(C)OC(C)C1 (stereo not given) | – | inactive: -15.6%
CCN1C(=O)[C@@H]2[C@@H](c3ccc(-c4ccc(F)cc4)cc3)N3CCC[C@@]3(C(=O)OC)[C@@H]2C1=O | – | inactive: 5.12%
CC(=O)CC1OC(=O)C(Br)=C1NCc1ccccc1 (stereo not given) | active: 2.59 µM | –
Cc1onc(-c2c(Cl)cccc2Cl)c1-c1nc2cc(Cl)ccc2c(=O)o1 | inconclusive [activator, single point] | –
O=C(NC12CC3CC(CC(C3)C1)C2)C1CC(=O)N(c2ccc(Br)cc2)C1 (stereo not given) | inconclusive [activator, full curve, poor fit] | –
Cc1ccc(-c2noc(CCC(=O)NCCCN3CCN(c4ccc(F)cc4)CC3)n2)cc1 | – | inactive: 7.27%
O=C(NCCCn1ccnc1)C1CCN(S(=O)(=O)c2cc([N+](=O)[O-])ccc2Cl)CC1 | – | inactive: 20.3%

Compound | Potency | activity, positive = re-replication
COc1ccc(S(=O)(=O)N2CCCC(C(=O)Nc3cccnc3)C2)cc1Cl (stereo not given) | inconclusive [activator, partial curve, poor fit] | –
N#CC1=C(N)C(C#N)(C#N)C(c2cccnc2)C2COCC=C12 (stereo not given) | – | inactive: 3.73%
Cc1ccc(S(=O)(=O)NC(C)(C)CSc2nnc(Nc3ccccc3)s2)cc1 | inconclusive [activator, single point] | –
Cc1cc(NC(=O)COC(=O)c2ccc(S(=O)(=O)N3CCCc4ccccc43)cc2)no1 | active: 9.2 µM | –
C#CCN1C(=O)C2(OCCO2)c2ccccc21 | – | inactive: 2.73%
Cc1ccc(C(C)NC(=O)Cc2cccs2)c(C)c1 (stereo not given) | inconclusive [activator, partial curve, poor fit] | –
NC(=O)c1c(NC(=O)c2ccccc2)sc2c1CCCC2 | active: 18.4 µM | –
c1cc2c(cc1C1CCCCC1)c1c3n2CCN=C3CCC1 | active: 16.4 µM | –
O=C(O)CCCC(=O)N1CCN(c2cccc(Cl)c2)CC1 | – | inactive: -2.18%
COc1ccccc1NC(=O)CNC(=O)CC12CC3CC(CC(C3)C1)C2 | inconclusive [activator, partial curve, poor fit] | –
COc1ccc(-c2sc3ccccc3c2/C=C/c2ccncc2)cc1 | active: 7.31 µM | –
CCC(=O)N1CCN(c2ccc(Cl)cc2NC(=O)Cc2ccc(Cl)cc2)CC1 | – | inactive: -8.96%
O=[N+]([O-])c1cccc(-c2nnc(-c3ccccc3)o2)c1 | inconclusive [activator, single point] | –
CC(C)(C)c1cc(NC(=O)c2cccnc2)no1 | – | inactive: -2.82%
O=C(N/N=C\c1cc(Cl)ccc1O)c1ccc(S(=O)(=O)N2CCCCC2)cc1 | active: 14.6 µM | –
Nc1nc(SCc2cccnc2)c2ncn(C3OC(CO)C(O)C3O)c2n1 (stereo not given) | inconclusive [activator, partial curve, poor fit] | –
NC(=O)C(C(=O)/C=C/c1ccc(Cl)cc1)=C1SCCS1 | inconclusive [activator, partial curve, poor fit] | –
COc1ccc(O)c(/C=N/NC(=O)CCC(=O)Nc2cccc(C)c2)c1 | inconclusive [activator, partial curve, poor fit] | –
COc1ccccc1NS(=O)(=O)c1cc(NC(=O)C2CCCC2)ccc1N1CCOCC1 | inconclusive [activator, single point] | –
Cc1ccc(C)c(NC(=O)COC(=O)c2ccc3c(c2)OCCO3)c1 | – | inactive: -7.19%
N#CC1=C(SCc2ccccc2)NC(=O)CC1c1cccc(O)c1 (stereo not given) | – | inactive: -5.35%
O=C(Cc1ccc(S(=O)(=O)N2CCOCC2)s1)Nc1ccc(Br)c(C(F)(F)F)c1 | inconclusive [activator, single point] | –
C=CCn1c(N)c(C(=O)OCC)sc1=S | – | inactive: -1.76%
CCN(CC)c1ccc(-c2n[nH]c(=S)n2-c2ccccc2)cc1 | inconclusive [activator, single point] | –
CCc1ccc(CN2CCC(n3nccc3NC(=O)c3ccccc3Cl)CC2)cc1 | inconclusive [activator, partial curve, poor fit] | –
